Measured values taken from the supplement of paper PMC3334620.
The full ranking holds about 33,000 sequences; the median of “E-score (-0.5 to 0.5)” is about -0.016, and the highest 2% start at about 0.32. This is one part of the list.

These sequences were tested against T1, Stp1 (UniProt B3LFK1) (assay: PBM E-score (8-mer binding enrichment) (E-score (-0.5 to 0.5)); higher = stronger / more preferred TF binding; most listed sequences are background and not binding sites). Conditions: protein concentration: 200 nM; construct: GST-full length.
T1 sequence: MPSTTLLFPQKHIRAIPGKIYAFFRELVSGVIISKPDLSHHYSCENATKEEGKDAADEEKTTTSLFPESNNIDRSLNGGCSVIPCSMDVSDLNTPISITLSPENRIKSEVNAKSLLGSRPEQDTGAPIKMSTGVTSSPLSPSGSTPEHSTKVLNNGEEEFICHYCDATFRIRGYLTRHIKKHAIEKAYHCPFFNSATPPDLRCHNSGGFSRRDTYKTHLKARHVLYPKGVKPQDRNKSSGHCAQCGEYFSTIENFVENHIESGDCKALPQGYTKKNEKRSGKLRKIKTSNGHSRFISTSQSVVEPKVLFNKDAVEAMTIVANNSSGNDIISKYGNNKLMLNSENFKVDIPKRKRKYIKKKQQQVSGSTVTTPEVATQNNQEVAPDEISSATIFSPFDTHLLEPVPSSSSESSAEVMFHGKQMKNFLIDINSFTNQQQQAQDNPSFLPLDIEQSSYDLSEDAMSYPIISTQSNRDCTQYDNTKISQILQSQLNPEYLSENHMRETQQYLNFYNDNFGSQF
Outline: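 Each ungapped eight-base word and its reverse complement, pooled, received an E-score from the Universal PBM Analysis Suite. Underlying scans, normalised with masliner, recorded fluorescent anti-GST bound to GST-tagged yeast transcription factors. These were applied at about 100-200 nM to universal all-10-mer Agilent arrays double-stranded by primer extension.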

Q: For CAAACGTA, which “PBM E-score” value is on record?
A: 0.131

Q: How did the “PBM E-score” value turn out when GTACCGTA was run?
A: 0.0706

Q: Which “PBM E-score” value does the source give for GGGGCGAA here?
A: 0.0031

Q: With AGAGTATC as the sequence, how does the “PBM E-score” value read?
A: 0.0961

Q: GGATGGCA was tested. Which “PBM E-score” value did it give?
A: 0.246

Q: Which “PBM E-score” value does the source give for GGCTTACA here?
A: 0.0161

Q: TACGTATA was tested. Which “PBM E-score” value did it give?
A: 0.168

Q: Which “PBM E-score” value does the source give for AAGGGACA here?
A: -0.0629

Q: How did the “PBM E-score” value turn out when AAAGCAAT was run?
A: 0.175

Q: Which “PBM E-score” value does the source give for AACACAAC here?
A: 0.12

Q: AAATACCA was tested. Which “PBM E-score” value did it give?
A: 0.0187

Q: Which “PBM E-score” value does the source give for GAAGCTAC here?
A: -0.12

Q: TGTCCTAA was tested. Which “PBM E-score” value did it give?
A: 0.135

Q: How did the “PBM E-score” value turn out when ACAACTGA was run?
A: 0.0794

Q: For ACAACTCT, which “PBM E-score” value is on record?
A: -0.0697

Q: How did the “PBM E-score” value turn out when ACCGGTGA was run?
A: -0.0475

Q: For CCCACACG, which “PBM E-score” value is on record?
A: 0.131

Q: With AGGTTTTG as the sequence, how does the “PBM E-score” value read?
A: -0.0629

Q: How did the “PBM E-score” value turn out when CACCCCCG was run?
A: -0.233

Q: Which “PBM E-score” value does the source give for ATCTACCC here?
A: -0.129

Q: For CCATTACG, which “PBM E-score” value is on record?
A: -0.0772

Q: For GCCCTCCA, which “PBM E-score” value is on record?
A: -0.0721

Q: How did the “PBM E-score” value turn out when ACCTCCGA was run?
A: -0.308

Q: How did the “PBM E-score” value turn out when ATTGTGTG was run?
A: -0.0138

Q: How did the “PBM E-score” value turn out when ACTGTGCG was run?
A: 0.0487

Q: With GCCGAGTA as the sequence, how does the “PBM E-score” value read?
A: 0.0791

Q: How did the “PBM E-score” value turn out when ATCCAACA was run?
A: 0.0711

Q: Which “PBM E-score” value does the source give for CCTGTATC here?
A: 0.0768

Q: For ATCTAAGC, which “PBM E-score” value is on record?
A: -0.0654

Q: Which “PBM E-score” value does the source give for ATGTTGCG here?
A: 0.171

Q: With CATACTAG as the sequence, how does the “PBM E-score” value read?
A: -0.103

Q: Which “PBM E-score” value does the source give for AGGTACCA here?
A: -0.236

Q: How did the “PBM E-score” value turn out when AGATCAAC was run?
A: -0.029

Q: For AACGGGGG, which “PBM E-score” value is on record?
A: -0.316

Q: For ATGGTGTG, which “PBM E-score” value is on record?
A: -0.0421

Q: For ACTTCCAC, which “PBM E-score” value is on record?
A: -0.0256

Q: For GCTTTCAC, which “PBM E-score” value is on record?
A: -0.0933

Q: How did the “PBM E-score” value turn out when ACGAGGCC was run?
A: 0.016

Q: How did the “PBM E-score” value turn out when AAGGGAAA was run?
A: 0.0605

Q: With CCGAAGCG as the sequence, how does the “PBM E-score” value read?
A: -0.0733

Q: How did the “PBM E-score” value turn out when ATACCAGA was run?
A: -0.0175

Q: With ACCAGACG as the sequence, how does the “PBM E-score” value read?
A: -0.0112

Q: For GGTGCAAA, which “PBM E-score” value is on record?
A: -0.00393

Q: Which “PBM E-score” value does the source give for GGGCCGGA here?
A: -0.0663

Q: How did the “PBM E-score” value turn out when AGTATGGA was run?
A: 0.0327

Q: How did the “PBM E-score” value turn out when AGCCCGTG was run?
A: -0.0717

Q: CACGATGA was tested. Which “PBM E-score” value did it give?
A: 0.0781

Q: For ACGTACGA, which “PBM E-score” value is on record?
A: -0.0101

Q: ATGGCGAG was tested. Which “PBM E-score” value did it give?
A: -0.138

Q: For CAGCCGTA, which “PBM E-score” value is on record?
A: 0.306

Q: With ACCCTCCT as the sequence, how does the “PBM E-score” value read?
A: -0.234

Q: GATTGAGC was tested. Which “PBM E-score” value did it give?
A: -0.0505

Q: How did the “PBM E-score” value turn out when CAGTAGCA was run?
A: 0.00349

Q: Which “PBM E-score” value does the source give for GTTAAAGA here?
A: 0.133

Q: For AATCAGGC, which “PBM E-score” value is on record?
A: -0.0126

Q: GCTCAACC was tested. Which “PBM E-score” value did it give?
A: -0.0201

Q: For GAAATTGA, which “PBM E-score” value is on record?
A: 0.154

Q: AAGAGAAA was tested. Which “PBM E-score” value did it give?
A: 0.0422

Q: For AGTAAGAA, which “PBM E-score” value is on record?
A: 0.11

Q: CTAGCTGA was tested. Which “PBM E-score” value did it give?
A: -0.11

Q: With TGCGGGAA as the sequence, how does the “PBM E-score” value read?
A: 0.0556

Q: AGTTATCC was tested. Which “PBM E-score” value did it give?
A: -0.109

Q: Which “PBM E-score” value does the source give for ACGTGTCC here?
A: -0.213

Q: Which “PBM E-score” value does the source give for AATACCAG here?
A: 0.00341

Q: Which “PBM E-score” value does the source give for AACCGCTG here?
A: -0.21

Q: For CCAAACAC, which “PBM E-score” value is on record?
A: 0.0602

Q: Which “PBM E-score” value does the source give for GCGTGGGA here?
A: -0.0429

Q: AAGACCTG was tested. Which “PBM E-score” value did it give?
A: -0.307

Q: With AAAGCGAG as the sequence, how does the “PBM E-score” value read?
A: 0.0598

Q: How did the “PBM E-score” value turn out when GCATTCTA was run?
A: 0.118

Q: How did the “PBM E-score” value turn out when CGAAAGGA was run?
A: -0.102

Q: For AAAGCACG, which “PBM E-score” value is on record?
A: 0.0591

Q: For CACCCCCA, which “PBM E-score” value is on record?
A: -0.371

Q: With GAAGTGCC as the sequence, how does the “PBM E-score” value read?
A: 0.309

Q: With ATATCGTG as the sequence, how does the “PBM E-score” value read?
A: 0.073

Q: How did the “PBM E-score” value turn out when AATGGCCG was run?
A: 0.108

Q: With AAGGAACA as the sequence, how does the “PBM E-score” value read?
A: -0.0527

Q: How did the “PBM E-score” value turn out when CTCTCGTC was run?
A: -0.13

Q: How did the “PBM E-score” value turn out when CGCACATC was run?
A: -0.0745

Q: TGGTTAAA was tested. Which “PBM E-score” value did it give?
A: 0.0931

Q: Which “PBM E-score” value does the source give for CTCAGAGA here?
A: 0.0644

Q: CATTTAGA was tested. Which “PBM E-score” value did it give?
A: 0.0352

Q: How did the “PBM E-score” value turn out when ACTTTCCA was run?
A: -0.0594

Q: How did the “PBM E-score” value turn out when TATGCATA was run?
A: 0.00403

Q: Which “PBM E-score” value does the source give for GTCATCCA here?
A: -0.178

Q: ATTCGGCC was tested. Which “PBM E-score” value did it give?
A: -0.109
